According to PMC4433240:
Where two headings read alike, the source gives them in different places. Results are given in words; binding and its absence hold for the method and conditions named. Some results given as binding are weak or reduced against the parent protein; the word gives no strength. Each block holds one molecule with its values, some of them ahead of it.

By UniProt entry, the sequences of proteins in these tests, tags left out.
UniProt Q39128: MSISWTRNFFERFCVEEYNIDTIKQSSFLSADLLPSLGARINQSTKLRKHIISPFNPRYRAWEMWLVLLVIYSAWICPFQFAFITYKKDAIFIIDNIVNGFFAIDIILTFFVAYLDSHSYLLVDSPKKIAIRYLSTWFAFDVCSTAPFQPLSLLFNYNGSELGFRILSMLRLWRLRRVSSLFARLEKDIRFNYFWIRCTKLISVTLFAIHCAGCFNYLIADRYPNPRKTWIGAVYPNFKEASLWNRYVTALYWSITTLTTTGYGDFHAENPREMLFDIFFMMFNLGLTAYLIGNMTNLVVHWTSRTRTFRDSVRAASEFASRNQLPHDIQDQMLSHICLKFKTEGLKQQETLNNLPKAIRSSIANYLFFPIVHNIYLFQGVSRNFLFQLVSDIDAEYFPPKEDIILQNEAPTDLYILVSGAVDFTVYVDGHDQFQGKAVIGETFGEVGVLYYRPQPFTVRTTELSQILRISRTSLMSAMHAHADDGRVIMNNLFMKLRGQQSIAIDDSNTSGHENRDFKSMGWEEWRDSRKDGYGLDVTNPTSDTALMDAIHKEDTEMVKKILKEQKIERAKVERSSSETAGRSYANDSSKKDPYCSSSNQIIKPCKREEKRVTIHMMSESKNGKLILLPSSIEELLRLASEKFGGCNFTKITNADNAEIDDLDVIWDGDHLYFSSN

How the values were obtained:
Test in all cases: two-hybrid; mating-based split-ubiquitin system (mbSUS) in budding yeast; bait Cub-PLV fusions and prey NubG fusions in mated diploid cells; growth on SC-Trp,-Leu,-Ade,-His,-Ura,-Met plates with 0, 0.075, 0.150 or 0.300 mM methionine, 2-9 days at 30°C
[1] = biological target: plant potassium channel KAT1 (UniProt Q39128)
[2] = biological target: T1, SMA-6, the type I receptor of the Sma/Mab pathway (C. elegans) (UniProt Q09488)
T1 sequence: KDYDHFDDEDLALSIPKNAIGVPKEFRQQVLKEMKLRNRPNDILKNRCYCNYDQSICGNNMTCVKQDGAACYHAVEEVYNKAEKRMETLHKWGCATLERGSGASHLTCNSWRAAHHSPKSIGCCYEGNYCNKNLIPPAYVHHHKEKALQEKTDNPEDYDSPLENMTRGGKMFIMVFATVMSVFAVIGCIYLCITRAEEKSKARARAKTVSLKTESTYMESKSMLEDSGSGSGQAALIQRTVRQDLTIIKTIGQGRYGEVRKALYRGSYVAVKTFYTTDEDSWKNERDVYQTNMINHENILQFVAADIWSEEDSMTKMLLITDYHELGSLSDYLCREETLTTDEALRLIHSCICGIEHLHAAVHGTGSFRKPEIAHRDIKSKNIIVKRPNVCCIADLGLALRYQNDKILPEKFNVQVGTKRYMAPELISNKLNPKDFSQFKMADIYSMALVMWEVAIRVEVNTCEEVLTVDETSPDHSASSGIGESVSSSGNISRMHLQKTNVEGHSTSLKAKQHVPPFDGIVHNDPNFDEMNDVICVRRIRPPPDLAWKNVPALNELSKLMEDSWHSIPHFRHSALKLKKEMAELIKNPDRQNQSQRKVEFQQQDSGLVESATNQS

[3] = biological target: T2, tetraspanin-21 (TSP-21) (C. elegans) (UniProt Q5WRN1)
T2 sequence: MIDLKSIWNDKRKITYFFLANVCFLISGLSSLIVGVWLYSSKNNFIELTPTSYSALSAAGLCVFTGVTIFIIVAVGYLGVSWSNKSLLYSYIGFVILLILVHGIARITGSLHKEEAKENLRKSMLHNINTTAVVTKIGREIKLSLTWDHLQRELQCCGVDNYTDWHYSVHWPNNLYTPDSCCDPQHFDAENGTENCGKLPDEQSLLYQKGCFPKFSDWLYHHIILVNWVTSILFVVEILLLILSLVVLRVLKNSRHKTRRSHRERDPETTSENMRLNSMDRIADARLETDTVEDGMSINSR

[4] = biological target: T3, DAF-4, the type II receptor (C. elegans) (UniProt P50488)
T3 sequence: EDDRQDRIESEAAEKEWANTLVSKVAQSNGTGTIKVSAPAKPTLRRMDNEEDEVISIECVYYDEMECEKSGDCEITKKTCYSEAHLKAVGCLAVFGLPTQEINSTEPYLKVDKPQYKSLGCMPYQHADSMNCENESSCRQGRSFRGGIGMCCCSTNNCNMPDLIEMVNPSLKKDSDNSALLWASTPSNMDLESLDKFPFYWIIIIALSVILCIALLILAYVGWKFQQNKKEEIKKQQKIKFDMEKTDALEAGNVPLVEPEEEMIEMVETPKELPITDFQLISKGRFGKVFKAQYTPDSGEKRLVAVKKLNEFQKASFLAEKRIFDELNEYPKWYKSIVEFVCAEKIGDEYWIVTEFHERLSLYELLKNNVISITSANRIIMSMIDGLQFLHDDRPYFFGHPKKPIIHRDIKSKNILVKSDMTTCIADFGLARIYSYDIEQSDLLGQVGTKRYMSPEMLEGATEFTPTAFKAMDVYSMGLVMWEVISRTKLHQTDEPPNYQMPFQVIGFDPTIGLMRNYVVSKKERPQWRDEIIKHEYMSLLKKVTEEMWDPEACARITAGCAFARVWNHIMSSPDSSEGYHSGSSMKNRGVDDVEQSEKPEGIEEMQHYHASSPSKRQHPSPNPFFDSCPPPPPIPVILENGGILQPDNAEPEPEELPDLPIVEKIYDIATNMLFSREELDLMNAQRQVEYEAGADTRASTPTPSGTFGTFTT

[5] = biological target: T1, SMA-6, the type I receptor of the Sma/Mab pathway (C. elegans); remark: listed apart in the source
[6] = biological target: T2, tetraspanin-21 (TSP-21) (C. elegans); remark: listed apart in the source
[7] = biological target: plant potassium channel KAT1 (UniProt Q39128); remark: listed apart in the source
[8] = biological target: T3, DAF-4, the type II receptor (C. elegans); remark: listed apart in the source

B1: tetraspanin-21 (TSP-21) (protein, UniProt Q5WRN1 1-301)
chain: T2 sequence
- binding [5]: no binding
- binding [6]: binds

B4: C. elegans ABC transporter HMT-1 (protein, UniProt G5EFD4 1-801)
chain: MGFSPFLDECRAEGLWPIGPSCNKIISFGVYTFFIVVNFIVLCIPNSNSANNNYRRMTDDDASSTSKLTISKILSICTIFAVICQSIFYFCFTFYFHPYTHLLLAFCVSKLFFWILSLCSFSKWRNQPSTPISLAFAFSAALLIHCIPLTDWKKYFEPTSKNRGDLTFYIIELALVTVVFFFTIVTGLFNFSGCSSRESAWNNLSKKVVTVAPYIWPTKSISLQLRVVFCLFLLIIGRLINVSLPILSKWIVDELATPDTFQYSLLFLATFLKFLQGNGAMGGFLNTVRTYLWIPIQQYTTRELEVELFKHLHSLSLRWHLSRKTGQVLRVMDRGTSSVNNILNYILFNVVPTIADIVIAVIFFFSAFNAYFGLIVFGTMALYLTVTISITEWRTQYIREANEKDNATSAIATDSLINYETVKYYGNEEFEVNRFKNAIESYQVTEWKTQASLAFLNCLQNAIIGIGMIGGSVFVVYMIVHEKTLTVGDYVLFTTYLLQLYTPLNFFGTIYRVIQKAFVDMENMFDLMNDEVEVKDLPHALPYTDPRGTISVKNLTFEYNTGLPVIKNISFEIGNGQTVALVGSSGSGKSTLIRLLFRLFESTEGSIEFDGIDVRNYTMHSLRQQIGIVPQDTVLFNDTIMYNIRFGRPDASDEEVIEAAKAAMIHEKITSLPEGYATMVGERGLKLSGGEKQRVAIARTILKKPQFIFLDEATSALDTPTERAIQKCLEKLCKSRTGVVVAHRLSTVVNADLILVLDKGIILERGNHKELLAQQGTYASMWEAQIAEQRAKSIELGEELP
- binding [6]: no binding

Next, values leading:

- binding [1]: binds
- binding [2]: no binding
- binding [3]: no binding
- binding [4]: no binding
Molecule: plant potassium channel KAT1 (from UniProt Q39128 1-677)

- binding [7]: no binding
- binding [5]: binds
- binding [6]: binds
- binding [8]: binds weakly
B2: TSP-14 (protein, UniProt H2L006 1-451)
chain: MPHRAPRRFMKTAPGACDWEQCLLMGSGEPTRARAVVSSSHKQRKPRQEISACLKWLVFLLNSIVFLVGVGILALGVYLFIKDFREVKLVDIILNPAILISIFGFSICVVSFFGFMGALRDNIFLLKCFAACVFLSYILVVAVTLVFFTLFYTDTTEGLSANWLLLYAVKNYHTNRNLAEIMDALQENLECCGVSSIAQGYRDWNMSYQFNCTNSNPQPEKCGVPFSCCRKSVISEAAGSSNPLLPAMRSLECWQNALTKRPGDLEHDIYTRGCLQPLRTLFESHAVHVGAFVALLIVPVCISVCLTNILAKQVDHQRYLLEREARRNDRRRKRDHNRRDQLNSLDLLEEGKFNNASANATRPRPPDIPPPLPPIEHVPRKKSRNASSSPTRKPKSAGVENAAARRKRTATTTRTPPAAAGPAPTPQATTTNRTHQWVLQQTDLVPQKSKS

- binding [7]: no binding
- binding [5]: binds
- binding [6]: binds
B3: TSP-12 (protein, UniProt Q22495 1-308)
chain: MANRRQPVQHRAQQRVYRQSQIRYAPGAGGESEISCCVKYSVFSFNVIFFLLGFGLLLFGVWAQIEKNTFVNMLSKASKLYLDPTWPLLIVGFLTFIIGFSGCVGSLRENTSFLTFYSTLLGLLLIAEFSAGVFAYACRDQLDNYIRNLLNDVVVGYRDDPDLQLLIDSMQETWMCCGINGADDWDRNTYFSIEAREVASPEAGGVPFSCCINSSKLEFKNYFCGHGVRLKPESHMAAHLAAQRVMAHTASIYTEGCLPKLQLWLNNNMLLVAVSMVIIAIIQVLGICFAQNLKSDILAQRAKWYYTH
